Measurements published in PubChem BioAssay AID588795 (National Center for Advancing Translational Sciences (NCATS), 2011).
Screen size: about 390,000 compounds; about 1,400 (0.36%) were called active. The shares of active, inactive and inconclusive entries below differ from those in the screen. Calls come from the whole dose curve; as a rule, active = well fitted inhibition curve with a large enough effect; inconclusive = small, poorly fitted or top-dose-only effect; inactive = no such curve, though single readings can be large or run the other way. Potencies beside an inconclusive call are fits to weak or partial responses and may not hold up.
Note: nearly all actives have a fitted effect of over 65% in size.
Potency is the fitted concentration of half-maximal effect; tags give direction and shape of the fitted curve.

Each molecule was assayed against Flap endonuclease 1 (Homo sapiens) (UniProt P39748) (assay: qHTS Assay for the Inhibitors of Human Flap endonuclease 1 (FEN1).). Details: Recombinant FEN1 flap cleavage, fluorescence, 15 min; series mostly up to 114 µM.
UniProt P39748, sequence (P39748 whole entry, looked up): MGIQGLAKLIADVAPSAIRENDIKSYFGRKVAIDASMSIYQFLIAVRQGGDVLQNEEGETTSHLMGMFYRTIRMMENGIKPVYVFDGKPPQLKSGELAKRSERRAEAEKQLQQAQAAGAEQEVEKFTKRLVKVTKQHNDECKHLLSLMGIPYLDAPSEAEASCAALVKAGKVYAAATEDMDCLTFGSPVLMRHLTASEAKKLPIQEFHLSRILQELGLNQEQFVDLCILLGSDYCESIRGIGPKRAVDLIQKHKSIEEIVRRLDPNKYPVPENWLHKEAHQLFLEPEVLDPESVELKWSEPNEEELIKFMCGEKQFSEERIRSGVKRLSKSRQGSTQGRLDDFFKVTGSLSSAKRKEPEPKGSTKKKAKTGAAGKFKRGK
In short: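 Recombinant FEN1 (10 nM) was preincubated with pin-transferred compounds for 15 min at room temperature, then flap DNA substrate (50 nM final) was added. Plates were read at 0 and 15 min, and normalized concentration–response data were fitted to a four-parameter Hill equation.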
`CCCCCCCCCCCC(=O)c1c(O)cccc1O` was tested, and the Potency was inconclusive: 70.8 µM [inhibitor, partial curve, poor fit]. `CCC(=O)C1=C(c2ccc(Cl)cc2)N(C(=O)CC)n2c(C)nnc2S1` was tested, and the Potency was inconclusive: 79.4 µM [inhibitor, partial curve, poor fit]. With `CCn1c(SCC(=O)NCc2cccs2)nnc1-c1cccs1` the Potency was “inactive”. In the case of `CCOC(=O)c1cccc(NC(=O)c2cc3c(=O)n(C)c4ccccc4c3n2C)c1`, the Potency is reported as “inactive”. In the case of `CCc1nnc2c(Nc3cccc(F)c3)nc3ccc(C(=O)c4ccccc4)cc3n12`, the Potency is reported as “inactive”. `CCc1cccc(C)c1NC(=O)COC(=O)CNS(=O)(=O)/C=C/c1ccccc1` was tested, and the Potency was “inactive”. In the case of `COc1cc2c(C#N)c(N3CCc4ccccc4C3)nc(N)c2c(N)n1`, the Potency is reported as inconclusive: 35.5 µM [inhibitor, partial curve, poor fit]. `CCOC(=O)c1ccc(N2C(=O)c3n[nH]c(C)c3C2c2ccccc2OC)cc1` (stereo not given) was tested, and the Potency was inconclusive: 89.1 µM [inhibitor, partial curve, poor fit]. For `CCOc1ccc2nc(NC(=O)CSc3nc(-c4ccccc4)c(C#N)c(=O)[nH]3)sc2c1`, the Potency was “inactive”. In the case of `COc1cc(/C=C2\SC(=Nc3ccccc3)NC2=O)cc(Cl)c1O`, the Potency is reported as inconclusive: 56.2 µM [inhibitor, partial curve, poor fit]. For `O=C(CSc1nc2ccsc2c(=O)n1CC1CCC(C(=O)O)CC1)c1ccc(Cl)cc1` (stereo not given), the Potency was inconclusive: 79.4 µM [inhibitor, partial curve, poor fit]. `CC(C)(C)c1ccc(C(=O)N/C(=C\c2cccc([N+](=O)[O-])c2)C(=O)Nc2cccc(C(=O)O)c2)cc1` was tested, and the Potency was inconclusive: 89.1 µM [inhibitor, partial curve, poor fit]. `CC1=C(c2ccc(C)cc2)S(=O)(=O)NC1=NCCCN1CCN(c2ccccc2F)CC1` was tested, and the Potency was “inactive”. With `COc1ccc(-c2cc3ccc(O)c(CN4CCC(C)CC4)c3oc2=O)cc1` the Potency was “inactive”. In the case of `Nc1ccc2c(c1Cl)C(=O)c1ccc(N)c(Cl)c1C2=O`, the Potency is reported as inconclusive: 15.8 µM [inhibitor, full curve]. `CCOC(=O)c1c(NC(=O)CSc2ncnc3ccccc23)sc(C(C)=O)c1C` was tested, and the Potency was inconclusive: 22.4 µM [inhibitor, partial curve, poor fit]. `O=C(N/N=C/C(Cl)=C/c1ccc([N+](=O)[O-])cc1)C(=O)Nc1ccc(C(=O)O)cc1` was tested, and the Potency was “inactive”. With `CC(=O)Nc1nonc1-c1nnc(SCC(=O)Nc2cccc(F)c2)n1-c1ccccc1` the Potency was “inactive”. With `Cc1c(C(=O)O)oc2c1C(O)CCC2` (stereo not given) the Potency was inconclusive: 3.55 µM [inhibitor, partial curve, poor fit]. With `COc1ccc(/C=C\C(=O)CC(O)(c2ccccc2)C(F)(F)F)cc1` (stereo not given) the Potency was inconclusive: 89.1 µM [inhibitor, partial curve, poor fit]. With `Nc1ncnc2oc(-c3ccco3)c(-c3ccco3)c12` the Potency was active: 35.5 µM. With `COC(=O)C1=C(C)NC(C)=C(C(=O)OCC(C)C)C1c1ccccc1[N+](=O)[O-]` (stereo not given) the Potency was inconclusive: 79.4 µM [inhibitor, partial curve, poor fit]. With `Cc1ccc(C2=NOC(=O)/C2=C\c2ccc(C)o2)cc1` the Potency was inconclusive: 79.4 µM [inhibitor, single point]. With `CC(/C=N/n1c(-c2ccncc2)n[nH]c1=S)=C\c1ccco1` the Potency was inconclusive: 50.1 µM [inhibitor, partial curve]. `CC(C)N(C(=O)[C@H]1C[C@H](CC(=O)NCc2ccco2)C(=O)N2CCc3c([nH]c4cc(-c5ccco5)ccc34)[C@]12C)C(C)C` was tested, and the Potency was inconclusive: 89.1 µM [inhibitor, partial curve, poor fit]. With `O=C1CCCCN1CC(=O)N1CCCC(Nc2ccc(F)c(F)c2)C1` (stereo not given) the Potency was inconclusive: 89.1 µM [inhibitor, single point]. `CC(C)n1c(-c2ccc(N(C)C)cc2)nc2ccccc21` was tested, and the Potency was inconclusive: 63.1 µM [inhibitor, partial curve, poor fit]. `CSC1=NSC2=NC(=O)/C(=C\c3cccs3)C(=N)N12` was tested, and the Potency was “inactive”. For `CCOC(=O)C1=C(C)N=c2s/c(=C/c3ccc(OCC(=O)O)cc3)c(=O)n2C1c1cc(OC)c(OC)c(OC)c1` (stereo not given), the Potency was inconclusive: 56.2 µM [inhibitor, partial curve, poor fit]. `C=CCc1cccc(CNc2nc3ccccc3n2CCC)c1O` was tested, and the Potency was inconclusive: 35.5 µM [inhibitor, partial curve, poor fit]. In the case of `Cc1ccc(-c2onc3ccc(C(=O)/C=C/N(C)C)cc23)cc1`, the Potency is reported as inconclusive: 50.1 µM [inhibitor, partial curve]. `Nc1c(Br)cc(C=O)cc1Br` was tested, and the Potency was “inactive”. For `O=S(=O)(O)c1ccc2c(N=Nc3ccc(S(=O)(=O)O)c4ccccc34)c(O)c(S(=O)(=O)O)cc2c1`, the Potency was active: 10 µM. With `COc1ccc(-c2nnc3ccc(SC(C)C)nn23)cc1OC` the Potency was inconclusive: 56.2 µM [inhibitor, partial curve, poor fit]. In the case of `COCCCNC(=O)C1CCN(C(=O)c2cnn(-c3ccccc3)c2-n2cccc2)CC1`, the Potency is reported as “inactive”. For `O=C(Oc1ccc[nH]c1=O)c1cc([N+](=O)[O-])cc([N+](=O)[O-])c1`, the Potency was inconclusive: 1.41 µM [inhibitor, full curve, poor fit]. With `COc1ccc(CC(=O)Nc2ccc(-c3nc4cc(C)ccc4o3)c(O)c2)cc1OC` the Potency was inconclusive: 50.1 µM [inhibitor, partial curve]. For `CC(=O)Oc1ccc2nonc2c1OC(C)=O`, the Potency was active: 10 µM. For `O=C1N=c2ccc([N+](=O)[O-])cc2=C1c1sc(=O)[nH]c1O`, the Potency was inconclusive: 56.2 µM [inhibitor, partial curve, poor fit]. `C[C@H](NC(=O)c1nc[nH]c1C(=O)N[C@@H](CCCCNC(=O)OC(C)(C)C)C(=O)OC(C)(C)C)C(=O)OC(C)(C)C` was tested, and the Potency was inconclusive: 39.8 µM [inhibitor, partial curve, poor fit]. With `COCCN(C(=S)Nc1c(C)cccc1C)C(C)c1cccnc1` (stereo not given) the Potency was “inactive”. In the case of `Fc1ccc(-c2ccc(CNCCSc3nnnn3-c3ccccc3)o2)cc1`, the Potency is reported as inconclusive: 79.4 µM [inhibitor, partial curve, poor fit]. `CC(C)C(=O)N1c2nc(-c3ccco3)nn2C2(CCCCC2)[C@@H]2CCCC[C@@H]21` was tested, and the Potency was “inactive”. For `Cc1oc2c(cc(NS(=O)(=O)c3ccc(C(C)C)cc3)c3ccccc32)c1C(=O)O`, the Potency was inconclusive: 28.2 µM [inhibitor, partial curve, poor fit]. For `COc1ccc(/C=N\NC(=O)c2ccccc2)cc1COc1ccc(F)cc1`, the Potency was inconclusive: 79.4 µM [inhibitor, partial curve, poor fit]. For `CCOc1ccc2nc(SCC(=O)Nc3ccc(S(=O)(=O)N4CCCC4)cc3)c(C)cc2c1`, the Potency was active: 39.8 µM. `O=C(COc1ccccc1)NCC(c1cccs1)S(=O)(=O)c1ccc(Cl)cc1` (stereo not given) was tested, and the Potency was “inactive”. With `COc1cc(/C=C2\COC/C(=C\c3ccc(O)c(OC)c3)C2=O)ccc1O` the Potency was inconclusive: 89.1 µM [inhibitor, partial curve, poor fit]. With `Cc1nc(C)c(-c2csc(Nc3ccc(O)c(C(=O)O)c3)n2)s1` the Potency was “inactive”. With `OC(CN1CCN(Cc2ccccc2)CC1)Cn1c2ccccc2c2ccccc21` (stereo not given) the Potency was inconclusive: 50.1 µM [inhibitor, partial curve, poor fit]. In the case of `CNCc1ccccc1Sc1ccc(O)c(O)c1`, the Potency is reported as inconclusive: 79.4 µM [inhibitor, partial curve, poor fit]. In the case of `Cc1ccc(S(=O)(=O)N(CC(O)Cn2c3ccccc3c3ccccc32)c2cccc(C(=O)N(C)C)c2)cc1` (stereo not given), the Potency is reported as active: 89.1 µM. For `COc1ccc(C2=NN(S(C)(=O)=O)C(c3cn(-c4ccccc4)nc3-c3cccs3)C2)cc1` (stereo not given), the Potency was inconclusive: 79.4 µM [inhibitor, single point]. `CCN(C(=O)C1CCC(CNS(=O)(=O)c2cccc3nsnc23)CC1)c1cccc(C)c1` (stereo not given) was tested, and the Potency was “inactive”. `COc1ccc2oc(=O)c(-c3csc(Nc4cccc(O)c4)n3)cc2c1` was tested, and the Potency was inconclusive: 44.7 µM [inhibitor, partial curve, poor fit]. `CCCCCCCCCCCCCC(=O)O` was tested, and the Potency was inconclusive: 100 µM [inhibitor, partial curve, poor fit]. In the case of `O=C(CNC(=O)c1cccs1)OCC(=O)c1ccc2ccccc2c1`, the Potency is reported as “inactive”. With `O=c1[nH]c(=O)c2nnc(N/N=C\c3ccc(O)cc3)nc2[nH]1` the Potency was “inactive”. `Nc1c(C(=O)NCc2ccc(F)cc2)c2nc3ccccc3nc2n1CCCN1CCOCC1` was tested, and the Potency was inconclusive: 89.1 µM [inhibitor, partial curve, poor fit]. `Cc1csc2nc(COc3ccc(NC(=O)COc4ccccc4F)cc3)cc(=O)n12` was tested, and the Potency was “inactive”. With `O=C(/C=C/c1ccco1)NC(=S)Nc1ccccc1N1CCOCC1` the Potency was inconclusive: 89.1 µM [inhibitor, partial curve, poor fit]. `Fc1ccc(Nc2nc3nonc3nc2Nc2cccc(C(F)(F)F)c2)cc1` was tested, and the Potency was inconclusive: 79.4 µM [inhibitor, partial curve, poor fit]. In the case of `COc1ccc(CNc2ncnc3c2[nH]c2ccccc23)cc1`, the Potency is reported as inconclusive: 39.8 µM [inhibitor, partial curve]. With `C=C1CCN(C(C(=O)O)C(C)C)S(=O)(=O)c2ccccc21` (stereo not given) the Potency was inconclusive: 100 µM [inhibitor, partial curve, poor fit]. For `COc1cccc2c(SCC(=O)N/N=C/c3ccc(O)c(O)c3)cc(C)nc12`, the Potency was inconclusive: 14.1 µM [inhibitor, full curve].
